PubChem BioAssay AID1508642 (National Center for Advancing Translational Sciences (NCATS), 2021)
Hit rate of the full screen: of about 43,000 compounds, about 200 (0.47%) were called active. Roughly 12% stayed inconclusive and do not appear here. Calls follow the shape of the dose curve; as a rule, active = well fitted cell-killing curve with a large enough effect; inconclusive = small, poorly fitted or top-dose-only effect, or effect the other way; inactive = flat fitted curve, though single readings scatter. This is one part of the list.

assay: Cell viability qHTS assay in S16 Pmp22-F2sN cells; conditions: S16 Pmp22-F2sN Schwann cells (luciferase reporters placed in the Pmp22 gene) viability, CellTiter-Glo, 24 h; series mostly up to 57.5 µM; activity change, negative = cytotoxicity: at the top concentration; also: nearly all actives have a fitted effect of over 65% in size
Outline: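 Luminescence from CellTiter-Glo, read by CCD camera after a 15 min room-temperature incubation, served as the viability signal. Reporter Schwann cells (S16 Pmp22-F2sN) had been treated with pin-transferred compounds for 24 h at 37C.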
% is scaled to controls: 0 for no effect and ±100 for the full control effect.

SMILES | activity change, negative = cytotoxicity
COc1ccc(Cl)cc1NC(=O)Cc1ccc(NC(=O)N2CCCCc3ccccc32)cc1 | inactive: -0.437%
CCOC(=O)Cn1c(=O)n(CC2CCCO2)c2nc(-c3ccc(C)cc3)nc(C(N)=O)c21 (centres undefined) | inactive: 4.77%
CC(=O)c1ccc(S(=O)(=O)N2CCn3cccc3C2c2ccc(C)cc2)cc1 (centres undefined) | inactive: -7.11%
CC(C)c1ccc(C2=CC(c3ccc(C(C)C)cc3)n3nnnc3N2)cc1 (centres undefined) | inactive: 1.9%
Cc1ccc2nc3c(cc(C(=O)NCC4CCCO4)c(=N)n3C(C)C)c(=O)n2c1 (centres undefined) | inactive: -17.3%
Cc1ccc(CN2CCSc3ccc(C(=O)N4CCN(c5ccccc5)CC4)cc32)cc1 | inactive: -23.7%
COc1ccc(N2CCN(C(=O)C3CCN(S(=O)(=O)c4cccs4)CC3)CC2)cc1 | inactive: 14.5%
O=C(CC1N=C2c3ccccc3N=C(SCc3ccc(Cl)cc3)N2C1=O)NCc1cccs1 (centres undefined) | inactive: 6.78%
CCOC(=O)c1ccccc1NC(=O)CSc1nc2cn(CC)nc2c(=O)n1Cc1ccc(Cl)cc1 | inactive: -24.2%
Cc1ccc2c(c1)c1c(c(=O)n(-c3cccc(Cl)c3)c(=O)n1CC(=O)Nc1c(C)cccc1C)n2C | inactive: 14%
O=c1c2cc3c(cc2n(Cc2ccc(Cl)cc2)c(=O)n1Cc1nc(-c2ccccc2)no1)OCO3 | inactive: 1.94%
Cc1ccc(-n2c(Cc3ccccc3)nnc2SCc2nc(-c3cccs3)no2)cc1 | inactive: -9.85%
CSc1cccc(NC(=O)C2CCCN(S(=O)(=O)c3ccc4c(c3)CCCN4C(C)=O)C2)c1 (centres undefined) | inactive: -16%
Cn1c(=O)oc2cc(S(=O)(=O)N3CCCC(C(=O)N4CCN(c5ccc(F)cc5)CC4)C3)ccc21 (centres undefined) | inactive: -6.55%
Cc1ccccc1OCC(=O)Nc1nnc(S(=O)(=O)N2CCCCCC2)s1 | inactive: 3.54%
CCc1nn2c(=O)cc(COC(=O)c3ccccc3NC(=O)c3ccc(C(C)(C)C)cc3)nc2s1 | inactive: 9.64%
O=C(Nc1c(C(=O)N2CCN(c3ccccc3F)CC2)oc2ccccc12)c1ccc(Br)o1 | inactive: 0.879%
Oc1ccccc1-c1nc2ccc(Cl)cn2c1Nc1ccc2c(c1)OCCO2 | inactive: -0.602%
CCS(=O)(=O)N1CCc2cc(C(=O)Nc3cccc(NC(C)=O)c3)ccc21 | inactive: 18.7%
COc1ccc(-c2ccc(=O)n(CC(=O)Nc3ccccc3C(F)(F)F)n2)cc1 | inactive: -4.98%

SMILES | activity change, negative = cytotoxicity
COc1ccc(-c2nc(CSc3nnc(C)n4c3cc3sccc34)c(C)o2)cc1 | inactive: 7.47%
Cc1ccc(C2c3[nH]c4ccccc4c3CCN2C(=O)CSc2ccccc2)cc1 (centres undefined) | inactive: -18.5%
COc1ccc(CNC(=O)C2=Cc3cccc(OC)c3OC2)cc1OC | inactive: 4.53%
COc1ccc(OC)c(NS(=O)(=O)c2ccc3c(c2)CCCN3C(=O)C2CCC2)c1 | inactive: -2.83%
O=C(Nc1ccc(F)cc1F)c1cc(CN2CCOCC2)on1 | inactive: -4.14%
COc1ccc(CNC(=O)Cn2c(=O)n3nc(-c4cccc(F)c4)nc3c3ccccc32)cc1OC | inactive: -3.07%
CCc1ccc(NC(=O)c2ccc(F)c(S(=O)(=O)N3CCc4ccccc4C3)c2)cc1 | inactive: -20.6%
Cc1cccc(NC(=O)C(Cc2ccccc2)N2Cc3ccccc3C2=O)c1C (centres undefined) | inactive: -0.276%
CCc1nn(CC(=O)NCCN(CC(C)C)CC(C)C)c(=O)c2cc3sc(C)cc3n12 | inactive: 5.49%
CCc1ccc(CNC(=O)c2ccc(-n3c(C)cc4c3CCC(C)C4)cc2)cc1 (centres undefined) | inactive: 0.134%
COc1cccc(C(c2sc3nc(-c4ccco4)nn3c2O)N2CCC3(CC2)OCCO3)c1 (centres undefined) | inactive: 0.609%
COc1cc(Br)c(C2CC(=O)Nc3cc4c(cc32)OCCO4)cc1OC (centres undefined) | inactive: -10.9%
O=C(NCC(c1ccc2c(c1)OCO2)N1CCOCC1)C(=O)Nc1ccc(Cl)cc1 (centres undefined) | inactive: 2.72%
Cc1ccccc1OCCSc1nnc(-c2ccc([N+](=O)[O-])cc2)o1 | inactive: -7.12%
Oc1cccc(-c2nc(-c3cccs3)c(-c3cccs3)[nH]2)c1 | inactive: -18.6%
CCCN(CCC)CCCNC(=O)c1sc2nc3n(c(=O)c2c1C)CCC3 | inactive: 7.97%
CCC1CCCCN1CCCNC(=O)c1sc2nc(C)cc(C)c2c1-n1cccc1 (centres undefined) | inactive: 5.69%
COc1ccccc1NC(=O)c1cc2c(n(-c3ccc(C)cc3)c1=O)CC(C)(C)CC2=O | inactive: -1.29%
O=C(c1ccc2c(c1)N(Cc1cccc(Cl)c1)C(=O)c1ccccc1S2(=O)=O)N1CCN(Cc2ccccc2)CC1 | inactive: -13.4%
CCc1cc2c(cc3c(=O)n(CC(=O)NC(C)C)nc(CC)n32)s1 | inactive: 12.4%

SMILES | activity change, negative = cytotoxicity
COc1ccc(CNC(=O)CSCc2ccc(C)cc2)c(OC)c1 | inactive: 0.235%
COc1cc2c(cc1OC)n(CC(=O)Nc1ccccc1)c(=O)n1nc(-c3ccccc3)nc21 | inactive: 1.19%
COC(=O)c1ccc(NC(=O)C(=O)NCCc2sc3nc(-c4ccc(OC)cc4)nn3c2C)cc1 | inactive: 1.11%
O=C(CCn1c(=O)c2cccn2c2cccnc21)NCc1ccc(Cl)cc1 | inactive: 13.4%
COc1ccccc1NC(=O)C1=C(C)Nc2c(C(=O)Nc3cccc(C)c3)cnn2C1c1ccccc1C (centres undefined) | inactive: -5.09%
CC(CC(=O)NCc1ccc(Cl)cc1Cl)CC1=NS(=O)(=O)c2ccccc2N1 (centres undefined) | inactive: 9.98%
Cc1ccc(Nc2nc3c(S(=O)(=O)c4ccccc4)nnn3c3ccc(Cl)cc23)c(C)c1 | inactive: -1.91%
Cc1cccc(OC(=O)c2nc(SCc3ccccc3F)ncc2Cl)c1 | inactive: -9.37%
CCOC(=O)c1ccc(NC(=O)Cn2cc(C(=O)c3cccs3)c3ccccc32)cc1 | inactive: 17.8%
COc1ccc(-c2cc(C(F)(F)F)n3nc(C(=O)Nc4sc5c(c4C(=O)OC(C)C)CCCC5)cc3n2)cc1OC | inactive: 2.57%
COc1ccc(N2CCN(C(CNC(=O)c3cccc(OC)c3)c3cccnc3)CC2)cc1 (centres undefined) | inactive: 5.72%
CCCCOC(=O)c1c(C)oc2ccc(NS(=O)(=O)c3ccc(F)cc3C)cc12 | inactive: 5.79%
CCOc1ccc(CN(C(=O)c2cc(=O)c3cc(Cl)ccc3o2)C2CCS(=O)(=O)C2)cc1 (centres undefined) | inactive: 23.5%
CCc1ccc(CNc2ncnc3onc(-c4ccc(Cl)cc4)c23)cc1 | inactive: -6.21%
Cn1c(C(=O)N2CCCC(C(=O)N3CCN(c4ccccc4)CC3)C2)cc2sccc21 (centres undefined) | inactive: 0.6%
CCCCNC(=O)CSC1=Nc2ccccc2C2=NC(CCC(=O)NCc3ccccc3OC)C(=O)N12 (centres undefined) | inactive: -18.3%
CCc1ccc(NC(=O)CSc2cn(CC(=O)N3CCOCC3)c3ccccc23)cc1 | inactive: 9.65%
COc1ccc(NC(=O)Cn2c(=O)n(-c3ccc(C)c(C)c3)c(=O)c3c4c(sc32)CCCCC4)cc1Cl | inactive: 5.08%
CCN(CC)C(=O)C1CCN(c2cc(C)nc3c(-c4ccc(OC)c(OC)c4)c(C)nn23)CC1 | inactive: -0.0269%
